Where a name gives a salt, the structure may show the parent alone. The list shows a part of the results. No stated cut-off is given here; in the data, active = 0.5 or less and inactive = the rest. Repeats are few or missing, and single values can be far off.
How the values were obtained:
Settings in all cases: 50 µM; 24 h
[1] = system: HeLa VPS33A reporter cells; assay: relative cell viability (CellMask signal) vs DMSO (fraction of DMSO); higher = less cytotoxic;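 further: primary screen of an FDA-approved drug library in HeLa reporter cells in 96-well format, CellMask signal normalized to DMSO-treated wells set as 1, under 0.5 deemed highly cytotoxic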
[2] = system: HeLa VPS33A R498W KI + HA-SDC1-FLAG; assay: relative GAG core protein HA-SDC1 amount per cell number vs DMSO (fraction of DMSO); higher = more SDC1 (GAG core protein);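 further: HA-SDC1 level read out by In-Cell Western staining with an anti-HA antibody against the N-terminal tag, screening FDA-approved library drugs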
[3] = system: HeLa VPS33A KO + NLuc-VPS33A R498W; assay: relative mutant VPS33A R498W amount (NanoLuc luminescence) vs DMSO (fraction of DMSO); HeLa model of a glycosaminoglycan (GAG) storage disease; KI is knock-in and KO knock-out; SDC1 is syndecan 1; higher = higher mutant VPS33A level;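 further: screen of an FDA-approved drug library, NanoLuc luminescence read after lysing the treated cells, taken as a measure of mutant VPS33A protein stability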

Row | Structure (SMILES) | relative cell viability [1] | relative GAG core protein HA-SDC1 amount per cell number [2] | relative mutant VPS33A R498W amount [3]
1 | CN1[C@@H]2CC[C@H]1C[C@@H](OC(=O)[C@H](CO)c1ccccc1)C2 [Hyoscyamine] | 1.02 | inactive: 0.647 | 1.09
2 | CC(C)(C)NCC(O)c1cc(Cl)c(N)c(Cl)c1 (configuration not stated) [Clenbuterol (hydrochloride)] | 1.15 | inactive: 0.754 | 1.06
3 | CN1[C@H]2C[C@H](OC(=O)[C@H](CO)c3ccccc3)C[C@@H]1[C@@H](O)C2 [Anisodamine] | 1.02 | inactive: 0.944 | 1.19
4 | Cc1cccc([C@H](C)c2c[nH]cn2)c1C [Dexmedetomidine] | 1.19 | active: 0.452 | 0.614
5 | Cc1cccc(C(C)c2c[nH]cn2)c1C (configuration not stated) [Medetomidine HCl] | 1.26 | inactive: 0.818 | 0.723
6 | CC1C=CC=CCCC=CC=CC=CC=CC(OC2OC(C)C(O)C(N)C2O)CC2OC(O)(CC(O)C(O)CCC(O)CC(O)CC(O)CC(=O)OC(C)C(C)C1O)CC(O)C2C(=O)O (configuration not stated) [Nystatin (Fungicidin)] | 0.935 | inactive: 1.08 | 1.24
7 | O=[N+]([O-])O[C@H]1CO[C@H]2[C@@H]1OC[C@H]2O[N+](=O)[O-] [Isosorbide Dinitrate] | 1.01 | inactive: 0.881 | 1.24
8 | CNCC(=O)c1ccc(O)c(O)c1 [Adrenalone HCl] | 1.26 | inactive: 0.639 | 1.03
9 | O=P1(N(CCCl)CCCl)NCCCO1 (configuration not stated) [Cyclophosphamide] | 1.3 | inactive: 0.959 | 1.29
10 | NC(=O)CN1CC(O)CC1=O (configuration not stated) [Oxiracetam] | 0.935 | inactive: 0.992 | 1.6
11 | CN1c2ccccc2C(NCCCCCCC(=O)O)c2ccc(Cl)cc2S1(=O)=O (configuration not stated) [Tianeptine sodium] | 0.976 | inactive: 0.922 | 1.13
12 | C=C[C@H]1CN2CC[C@H]1C[C@H]2[C@H](O)c1ccnc2ccccc12 [Cinchonidine] | 1.06 | inactive: 0.733 | 1.1
13 | Cc1cccc(C)c1NC1=NCCCS1 [Xylazine HCl] | 1.23 | inactive: 0.925 | 1.24
14 | C=CCN1CC[C@]23c4c5ccc(O)c4O[C@H]2C(=O)CC[C@@]3(O)[C@H]1C5 [Naloxone HCl] | 1.02 | inactive: 1.06 | 1.21
15 | COC1=C[C@@H]2[C@@H]3Cc4ccc(OC)c(O)c4[C@]2(CCN3C)CC1=O [Sinomenine Hydrochloride] | 0.982 | inactive: 0.833 | 0.769
16 | Cn1c(CCCC(=O)O)nc2cc(N(CCCl)CCCl)ccc21 [Bendamustine HCl] | 1.24 | inactive: 0.759 | 0.808
17 | NCC1(CC(=O)O)CCCCC1 [Gabapentin] | 1.05 | inactive: 1.59 | 0.747
18 | CN1[C@@H]2C[C@@H](OC(=O)[C@H](CO)c3ccccc3)C[C@H]1[C@@H]1O[C@@H]12 [Scopolamine hydrobromide] | 1.04 | inactive: 0.724 | 0.968
19 | CN(C)C(=O)Oc1cc(OC(=O)N(C)C)cc(C(O)CNC(C)(C)C)c1 (configuration not stated) [Bambuterol (hydrochloride)] | 1.04 | inactive: 0.861 | 1.32
20 | O=S(=O)(F)Cc1ccccc1 | 1.34 | inactive: 0.975 | 1.23

Row | Structure (SMILES) | relative cell viability [1] | relative GAG core protein HA-SDC1 amount per cell number [2] | relative mutant VPS33A R498W amount [3]
21 | O=c1[nH]c2ccccc2n1C1CCN(CCCC(c2ccc(F)cc2)c2ccc(F)cc2)CC1 [Pimozide] | 1.06 | inactive: 0.943 | 1.41
22 | CCC1(C)CC(=O)NC(=O)C1 [Bemegride] | 1.02 | inactive: 1.32 | 1.25
23 | Cc1cccc([C@H](C)c2c[nH]cn2)c1C [Dexmedetomidine HCl] | 1.21 | inactive: 0.765 | 0.677
24 | CO[C@]12C[C@@H](COC(=O)c3cncc(Br)c3)CN(C)[C@@H]1Cc1cn(C)c3cccc2c13 [Nicergoline] | 0.952 | inactive: 0.771 | 0.526
25 | C[C@]12CC[C@H](O)CC1=CC[C@@H]1[C@@H]2CC[C@]2(C)C(=O)CC[C@@H]12 [Dehydroepiandrosterone (DHEA)] | 1.23 | inactive: 1.09 | 1.29
26 | N#C[C@H](O[C@@H]1O[C@H](CO[C@@H]2O[C@H](CO)[C@@H](O)[C@H](O)[C@H]2O)[C@@H](O)[C@H](O)[C@H]1O)c1ccccc1 [Amygdalin] | 1.15 | inactive: 0.962 | 1.41
27 | O=P1(NCCCl)OCCCN1CCCl (configuration not stated) [Ifosfamide] | 1.2 | inactive: 1.19 | 0.823
28 | COc1ccc(C(CN(C)C)C2(O)CCCCC2)cc1 (configuration not stated) [Venlafaxine] | 1 | inactive: 1.34 | 1.01
29 | N=C(N)NN [Aminoguanidine hydrochloride] | 1.12 | inactive: 0.826 | 1.02
30 | N[C@@H]1C[C@H]1c1ccccc1 [Tranylcypromine hydrochloride] | 1.06 | inactive: 0.849 | 1.22
31 | Cc1cccc(Cc2c[nH]cn2)c1C [Detomidine HCl] | 1.19 | inactive: 1.02 | 1.06
32 | O=C(O[C@H]1C[C@H]2CC[C@@H](C1)[N+]21CCCC1)C(O)(c1ccccc1)c1ccccc1 [Trospium chloride] | 1.03 | inactive: 0.995 | 1.13
33 | CCCN1C[C@H](CSC)C[C@@H]2c3cccc4[nH]cc(c34)C[C@H]21 [Pergolide mesylate] | 1.1 | inactive: 0.999 | 1.05
34 | CC(C)NCC(O)c1ccccc1Cl (configuration not stated) [Clorprenaline HCL] | 1.01 | inactive: 0.941 | 1.13
35 | C[C@]12CC[C@H](O)C[C@@H]1CC[C@@H]1[C@@H]2CC[C@]2(C)C(=O)CC[C@@H]12 [Epiandrosterone] | 1.06 | inactive: 0.527 | 0.472
36 | CCC12C=CCN3CC[C@@]4(c5ccc(OC)cc5N(C)[C@H]4[C@@](O)(C(=O)OC)[C@@H]1OC(C)=O)[C@@H]32 (some centres not stated) [Vindoline] | 1.03 | inactive: 0.704 | 0.892
37 | O=[N+]([O-])O[C@@H]1CO[C@H]2[C@@H]1OC[C@@H]2O [Isosorbide 5-mononitrate] | 0.998 | inactive: 0.897 | 1.38
38 | CN(C)C(=O)Oc1ccc[n+](C)c1 [Pyridostigmine Bromide] | 0.908 | inactive: 0.776 | 1.09
39 | OC(c1ccccc1)(c1ccccc1)C1CCNCC1 [Azacyclonol] | 1.1 | inactive: 0.709 | 0.861
40 | CC(C)c1c(CN(C)C(C)Cc2ccccc2)n(C)n(-c2ccccc2)c1=O (configuration not stated) [Famprofazone] | 1.06 | inactive: 1.02 | 0.45

Row | Structure (SMILES) | relative cell viability [1] | relative GAG core protein HA-SDC1 amount per cell number [2] | relative mutant VPS33A R498W amount [3]
41 | O=c1[nH]c2ccccc2n1CCCN1CCC(n2c(=O)[nH]c3cc(Cl)ccc32)CC1 [Domperidone] | 1.13 | active: 0.398 | 0.508
42 | NCCc1ccc(O)cc1 [Tyramine] | 0.985 | inactive: 0.816 | 1.38
43 | CCOC(=O)c1cncn1[C@H](C)c1ccccc1 [Etomidate] | 1.17 | inactive: 1.12 | 1.13
44 | COc1ccc(C(=O)N2CCCC2=O)cc1 [Aniracetam] | 1.28 | inactive: 1.15 | 1.15
45 | NC[C@H](CC(=O)O)c1ccc(Cl)cc1 [(R)-baclofen] | 1.32 | inactive: 1.5 | 1.08
46 | Cc1cccc(C)c1NC1=NCCCS1 [Xylazine] | 0.99 | inactive: 0.818 | 1.16
47 | O=C(O)c1nn(Cc2ccc(Cl)cc2Cl)c2ccccc12 [Lonidamine] | 1 | inactive: 0.835 | 0.995
48 | C[C@]12CCC(=O)C[C@@H]1CC[C@@H]1[C@@H]2CC[C@]2(C)[C@@H](O)CC[C@@H]12 [Dihydrotestosterone(DHT)] | 1.01 | inactive: 0.894 | 1.25
49 | C[N+](C)(C)CCCCCCCCCC[N+](C)(C)C [Decamethonium Bromide] | 0.982 | inactive: 1.01 | 1.37
50 | C=CC[C@]1(O)CC[C@H]2[C@@H]3CCC4=CC(=O)CCC4=C3C=C[C@@]21C [Altrenogest] | 1.15 | active: 0.422 | 1.1
51 | COc1ccc2c(c1)[nH]c1c(C)nccc12 [Harmine hydrochloride] | 0.679 | active: 0.285 | 2.83
52 | CC[C@@]1([C@H]2O[C@H]([C@H]3O[C@@](O)(CO)[C@H](C)C[C@@H]3C)C[C@H]2C)CC[C@H]([C@@]2(C)CC[C@]3(C[C@H](O)[C@@H](C)[C@@H]([C@H](C)[C@H](OC)[C@@H](C)C(=O)O)O3)O2)O1 [Sodium Monensin] | 1 | inactive: 0.795 | 0.742
53 | CCC1(c2ccc(N)cc2)CCC(=O)NC1=O (configuration not stated) [Aminoglutethimide] | 1.22 | inactive: 1.07 | 1.36
54 | CN(C)NC(=O)CCC(=O)O [Daminozide] | 1.13 | inactive: 1.1 | 1.26
55 | C[C@]12CC[C@@H](O)C[C@@H]1CC[C@@H]1[C@@H]2CC[C@]2(C)C(=O)CC[C@@H]12 [Androsterone] | 0.968 | inactive: 0.75 | 1.45
56 | CCN(C)C(=O)Oc1cccc([C@H](C)N(C)C)c1 [Rivastigmine] | 1.04 | inactive: 0.656 | 0.667
57 | C=C1CC[C@H]2[C@@H](C=C(C)C(=O)[C@@]3(O)C[C@H](C)[C@H](O)[C@@H]3[C@H]1O)C2(C)C [Lathyrol] | 1.05 | inactive: 0.777 | 1.2
58 | CN(C)[C@@H]1C(=O)C(C(N)=O)=C(O)[C@@]2(O)C(=O)C3=C(O)c4c(O)cccc4[C@@](C)(O)[C@H]3[C@H](O)[C@@H]12 [Oxytetracycline (Terramycin)] | 0.937 | inactive: 0.805 | 0.994
59 | Cn1cc(C2=C(c3cn(C4CCN(Cc5ccccn5)CC4)c4ccccc34)C(=O)NC2=O)c2ccccc21 | 1.05 | inactive: 3.76 | 0.496

— the supplement of paper PMC12355420
